Results: patent US20160194407A1 (AstraZeneca / MedImmune, published 2016)

Assays:
[1] = target: T1, human CD73 on cells (human, UniProt P21589 27-549); test: cell-based or functional assay
T1 sequence: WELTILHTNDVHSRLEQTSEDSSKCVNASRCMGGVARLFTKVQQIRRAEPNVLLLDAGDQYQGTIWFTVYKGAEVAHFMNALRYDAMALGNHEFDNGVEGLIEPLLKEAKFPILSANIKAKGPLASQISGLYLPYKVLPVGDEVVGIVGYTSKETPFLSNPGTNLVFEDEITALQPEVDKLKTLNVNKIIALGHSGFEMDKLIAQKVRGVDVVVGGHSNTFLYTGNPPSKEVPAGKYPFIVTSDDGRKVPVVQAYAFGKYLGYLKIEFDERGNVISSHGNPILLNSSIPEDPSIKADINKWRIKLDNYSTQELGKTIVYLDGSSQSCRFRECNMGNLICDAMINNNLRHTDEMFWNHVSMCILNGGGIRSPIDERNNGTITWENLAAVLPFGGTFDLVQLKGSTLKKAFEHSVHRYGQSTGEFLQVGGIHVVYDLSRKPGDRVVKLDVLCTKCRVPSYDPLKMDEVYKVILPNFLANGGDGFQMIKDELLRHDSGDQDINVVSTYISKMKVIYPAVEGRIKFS

[2] = target: T2, murine CD73 on cells (murine, UniProt Q61503 29-551); test: cell-based or functional assay
T2 sequence (looked up): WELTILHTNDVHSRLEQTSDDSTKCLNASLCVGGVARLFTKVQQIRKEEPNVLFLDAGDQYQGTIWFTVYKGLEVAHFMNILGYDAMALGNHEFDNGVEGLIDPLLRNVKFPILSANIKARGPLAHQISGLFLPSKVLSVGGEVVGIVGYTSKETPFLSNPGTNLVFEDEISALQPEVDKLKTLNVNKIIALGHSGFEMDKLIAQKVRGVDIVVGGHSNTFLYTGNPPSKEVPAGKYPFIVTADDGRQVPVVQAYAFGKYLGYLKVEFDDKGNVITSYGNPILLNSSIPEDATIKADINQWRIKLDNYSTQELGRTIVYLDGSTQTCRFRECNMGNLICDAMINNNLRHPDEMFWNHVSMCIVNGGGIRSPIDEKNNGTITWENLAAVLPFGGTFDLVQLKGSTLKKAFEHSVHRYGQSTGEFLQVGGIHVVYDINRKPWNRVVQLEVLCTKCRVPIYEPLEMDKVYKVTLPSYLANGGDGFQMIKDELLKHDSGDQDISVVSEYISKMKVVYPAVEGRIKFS

B1: P32E (antibody, IgG1, V domains shown)
VH: [not shown - about 100 residues]LGYSTIDYWGRGTLVTVSS
VL: QSVLTQPPSASGTPGQRVTISCSGSLSNIGRNEVNWYQQLPGTAPKLLIYLNNQRPSGVPDRFSGSKSGTSASLAISGLQSEDEADYYCATWDDSLNGWLFGGGTKLTVL
notes: also called L1-P32E; clone 10 P32E
[1]
  FabZAP internalization, EC50, MDA-MB-231: 15.7 pM
  FabZAP internalization, max toxicity, MDA-MB-231: 95%
[2]
  FabZAP internalization, EC50, 4T1: 124 pM
  FabZAP internalization, max toxicity, 4T1: 92%
